According to the supplement of paper PMC7826260:
The list shows a part of the results. Viral Rep nickase domains cut single-stranded DNA in vitro for 1 h at 37 °C with 3 µM enzyme; only the middle of the 90-letter strands is printed. The score is log2 (uncut reads / reads without enzyme); more negative means more cut, near 0 not cut, and no call is made. Because reads are shares of a total, they shift together; where an enzyme cuts many sequences, the uncut ones exceed 0.

Key:
Assay in all cases: uncleaved DNA left, log2 of reads against the no-enzyme library (log2 ratio); higher = less cleavage (more negative = more Rep cleavage of the k-mer); sequences stand for … in CTCGTCCG…ACCGGAGA
[1] = tested on: T1, Rep nickase domain of Muscovy duck circovirus
T1 sequence (Rep 1-111, printed without the tag): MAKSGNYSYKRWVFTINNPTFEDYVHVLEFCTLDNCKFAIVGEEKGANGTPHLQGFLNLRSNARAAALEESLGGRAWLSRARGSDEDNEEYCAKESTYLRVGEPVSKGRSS
Description: (§1)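 A pool of 90-nt single-stranded DNAs with seven random bases just before the constant AC of the nick site (name = the seven bases) was cut by 3 µM recombinant His6-SUMO-tagged Rep nickase domain (300 nM DNA, 50 mM HEPES pH 8.0, 50 mM NaCl, 1 mM MnCl2, 1 h, 37 °C, three replicates). Uncut DNA was amplified and sequenced.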

[2] = tested on: T2, Rep nickase domain of banana bunchy top virus
T2 sequence (Rep 1-94, printed without the tag): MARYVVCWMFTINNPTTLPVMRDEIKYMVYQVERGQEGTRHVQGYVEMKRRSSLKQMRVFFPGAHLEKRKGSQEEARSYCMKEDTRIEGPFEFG
Description: as §1

[3] = tested on: T3, Rep nickase domain of cabbage leaf curl virus
T3 sequence (Rep 1-116, printed without the tag): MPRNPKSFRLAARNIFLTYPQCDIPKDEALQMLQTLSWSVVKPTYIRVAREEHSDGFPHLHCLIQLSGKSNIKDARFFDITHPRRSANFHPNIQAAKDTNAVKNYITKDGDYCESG
Description: as §1

[4] = tested on: T4, Rep nickase domain of chickpea chlorotic dwarf virus
T4 sequence (Rep 1-124, printed without the tag): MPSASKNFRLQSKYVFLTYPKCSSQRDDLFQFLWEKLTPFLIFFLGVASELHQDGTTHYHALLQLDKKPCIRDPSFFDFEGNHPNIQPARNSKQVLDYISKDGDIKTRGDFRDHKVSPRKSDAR
Description: as §1

[5] = tested on: T5, Rep nickase domain of faba bean necrotic yellows virus
T5 sequence (Rep 1-98, printed without the tag): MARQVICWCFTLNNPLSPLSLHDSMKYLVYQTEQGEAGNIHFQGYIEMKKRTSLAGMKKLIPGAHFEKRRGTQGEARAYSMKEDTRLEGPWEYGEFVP
Description: as §1

[6] = tested on: T6, Rep nickase domain of maize striate mosaic virus
T6 sequence (Rep 1-117, printed without the tag): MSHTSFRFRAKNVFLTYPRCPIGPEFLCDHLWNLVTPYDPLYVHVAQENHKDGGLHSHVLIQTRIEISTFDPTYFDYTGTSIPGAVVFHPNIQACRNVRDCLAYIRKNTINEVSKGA
Description: as §1

[7] = tested on: T7, Rep nickase domain of porcine circovirus 2
T7 sequence (Rep 2-116, printed without the tag): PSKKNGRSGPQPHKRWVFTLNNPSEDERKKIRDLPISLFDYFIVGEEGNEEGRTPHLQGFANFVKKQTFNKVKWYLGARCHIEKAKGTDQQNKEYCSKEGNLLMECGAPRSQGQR
Description: as §1

[8] = tested on: T8, Rep nickase domain of tomato golden mosaic virus
T8 sequence (Rep 1-124, printed without the tag): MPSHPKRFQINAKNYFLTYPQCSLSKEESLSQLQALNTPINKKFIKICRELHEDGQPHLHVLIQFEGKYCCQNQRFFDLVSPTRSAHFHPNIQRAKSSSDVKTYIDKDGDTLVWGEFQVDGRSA
Description: as §1

[9] = tested on: T9, Rep nickase domain of tomato yellow leaf curl virus
T9 sequence (Rep 1-136, printed without the tag): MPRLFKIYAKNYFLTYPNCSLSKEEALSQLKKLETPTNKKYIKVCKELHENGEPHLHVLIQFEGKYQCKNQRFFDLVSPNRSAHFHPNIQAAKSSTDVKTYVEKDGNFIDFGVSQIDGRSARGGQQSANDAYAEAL
Description: as §1

[10] = tested on: T10, Rep nickase domain of wheat dwarf virus
T10 sequence (Rep 1-137, printed without the tag): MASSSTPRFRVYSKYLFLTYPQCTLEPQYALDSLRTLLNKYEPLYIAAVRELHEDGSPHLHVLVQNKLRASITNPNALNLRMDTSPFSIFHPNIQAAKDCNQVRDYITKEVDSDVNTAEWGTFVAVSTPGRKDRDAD
Description: as §1

Sequence | uncleaved DNA left (log2) [1] | uncleaved DNA left (log2) [2] | uncleaved DNA left (log2) [3] | uncleaved DNA left (log2) [4] | uncleaved DNA left (log2) [5] | uncleaved DNA left (log2) [6] | uncleaved DNA left (log2) [7] | uncleaved DNA left (log2) [8] | uncleaved DNA left (log2) [9] | uncleaved DNA left (log2) [10]
CTTCCGT | 0.0847 | -0.101 | -0.248 | -0.782 | 0.0494 | -0.953 | 0.0241 | -0.0549 | -0.104 | -0.14
GTAGTAA | -0.00928 | 0.0958 | 0.297 | 0.828 | -0.043 | 1.74 | 0.0406 | 0.061 | 0.102 | 0.082
TCATAAT | -3.68 | -0.119 | -3 | -2.8 | -0.0648 | -1.07 | -4.01 | -0.464 | -0.102 | -0.341
ATGGTAT | 0.0758 | 0.0874 | 0.27 | 1.44 | -0.0872 | 1.74 | 0.149 | 0.144 | -0.0231 | 0.0936
CCGGTGT | 0.00613 | 0.0714 | 0.0805 | 0.088 | 0.00542 | 0.254 | 0.165 | -0.0662 | -0.154 | -0.138
GCCGTCC | -0.0787 | -0.0319 | 0.182 | 0.308 | -0.0279 | 0.0603 | 0.0526 | 0.0509 | -0.132 | 0.0632
GGTAGTA | -0.046 | 0.0717 | 0.456 | 1.02 | 0.00668 | 1.75 | 0.117 | 0.0147 | 0.0488 | 0.0464
AGGGCCA | 0.0221 | 0.103 | 0.403 | 0.809 | -0.0455 | 1.28 | 0.103 | 0.114 | -0.0196 | 0.0817
GGTCAAG | 0.151 | 0.139 | 0.0937 | 0.314 | 0.0584 | -0.198 | 0.209 | 0.0494 | 0.119 | 0.109
GTCCTGC | 0.0421 | 0.0904 | 0.288 | 0.711 | -0.113 | 1.24 | 0.0741 | 0.00147 | 0.0196 | 0.075
AGTGGTA | 0.0565 | -0.0954 | 0.0905 | 0.523 | -0.0461 | 1.12 | -0.546 | 0.0979 | 0.027 | 0.00724
CGGGGTG | 0.109 | -0.066 | -0.0706 | -0.061 | 0.0859 | 0.0528 | 0.161 | 0.0616 | 0.0361 | -0.0932
CAACACG | -0.222 | -0.185 | -1.09 | -0.483 | 0.0259 | -1.1 | 0.0514 | -0.0462 | -0.106 | -0.157
CACGTAG | -0.0933 | -0.18 | -0.718 | -0.701 | -0.166 | -1.52 | -0.0283 | -0.112 | -0.138 | -0.301
TCTGGCG | 0.203 | 0.112 | -0.564 | 1.01 | 0.293 | -0.0464 | 0.267 | 0.0989 | 0.152 | -0.0104
TTCTGTG | -0.0165 | -0.0386 | -0.881 | -0.519 | 0.0827 | -0.967 | 0.1 | 0.01 | -0.0312 | -0.0567
